Among all 310,000 compounds or so, about 18,000 (5.8%) were called active. This list was built around the results that the source calls inconclusive (neither active nor inactive); the mix of calls is not that of the screen. Calls follow the shape of the dose curve; as a rule, active = well fitted inhibition curve with a large enough effect; inconclusive = small, poorly fitted or top-dose-only effect, or another doubt; inactive = no such curve, though single readings can be large or run the other way. Potencies of inconclusive entries are left out as doubtful fits.
Assay: Primary qHTS for delayed death inhibitors of the malarial parasite plastid, 48 hour incubation
Conditions: P. falciparum luciferase growth in erythrocytes; series mostly up to 28.7 µM
Outline: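 A one-generation exposure of luciferase-tagged malaria parasites in RPMI 1640/Albumax erythrocyte culture, 37 C and 5% CO2. Inhibition is inferred from decreased luminescence after adding detection reagent.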
Potency is read from the fitted curve at half-maximal effect; tags tell the direction and shape of the fitted curve.

| SMILES | Potency |
| --- | --- |
| CCC(=O)c1ccc(N2CCN(C(=O)c3cc([N+](=O)[O-])ccc3N3CCN(C)CC3)CC2)c(F)c1 | inconclusive [inhibitor, partial curve] |
| COc1cc(NC(=O)c2cc(Cl)nnc2Cl)cc(OC)c1OC | active: 11.7 µM |
| COc1cc(C(c2c(C)n(C)n(-c3ccccc3)c2=O)c2c(C)n(C)n(-c3ccccc3)c2=O)cc(Br)c1O | inconclusive [inhibitor, partial curve, poor fit] |
| CC(C)C[C@H](NC(=O)c1[nH]cnc1C(=O)Nc1ccc(CNC(=O)OC(C)(C)C)cc1)C(=O)OC(C)(C)C | active: 8.28 µM |
| O=C(CCc1nnc2ccc(NCc3ccco3)nn12)Nc1ccc(F)cc1 | inactive |
| O=C(NC1CCN(Cc2ccccc2Cl)CC1)c1ccccc1 | inconclusive [inhibitor, single point] |
| Cc1cc2ncn(CC(O)COC3CCCCC3)c2cc1C (stereo unspecified) | inconclusive [inhibitor, single point] |
| Cc1nc(-c2ccc(C(=O)Nc3cccc(Br)c3)cc2)cs1 | inactive |
| O=C(N/C(=C/c1ccc(Cl)cc1)C(=O)N1CCCCC1)c1ccco1 | inconclusive [inhibitor, partial curve, poor fit] |
| C=C1CCN([C@H](C(=O)NCc2ccc(Cl)c(Cl)c2)C(C)C)S(=O)(=O)c2ccccc21 | inconclusive [inhibitor, partial curve, poor fit] |
| COC(=O)c1cccc(OC(N)=O)c1 | inactive |
| COc1ccc(-c2nnn(CC(=O)N(CC(=O)NCCC(C)C)c3ccccc3)n2)cc1OC | inconclusive [inhibitor, single point] |
| COc1ccc(-n2c(Cc3cccn3C)nnc2SCC(=O)Nc2nc(C)cs2)cc1 | inconclusive [inhibitor, single point] |
| COc1ccc(C(CCN2CCOCC2)c2c(OC)cc(OC)c3c(C)cc(=O)oc23)cc1 (stereo unspecified) | inconclusive [inhibitor, single point] |
| COc1ccc(COC(=O)C2=C(C)NC(=O)NC2c2cc(OC)ccc2OC)cc1 (stereo unspecified) | inconclusive [inhibitor, single point] |
| COCCn1c(SCC(=O)Nc2ccccc2OC)nc2c([nH]c3ccccc32)c1=O | inconclusive [inhibitor, partial curve] |
| COc1cccc(CNC(=O)C2CCC(CNc3nc(=S)[nH]c4ccccc34)CC2)c1 (stereo unspecified) | inconclusive [inhibitor, single point] |
| CC(=O)Nc1ccc(S(=O)(=O)N2CCC(C(=O)NCCc3c[nH]c4ccccc34)CC2)cc1 | inconclusive [inhibitor, partial curve, poor fit] |
| O=C(Cc1ccc(N2CCNC2=O)cc1)N1CCCC(Nc2ccc(F)c(F)c2)C1 (stereo unspecified) | inconclusive [inhibitor, single point] |
| c1coc(-c2nnc3sc(C4CCCCC4)nn23)c1 | inconclusive [inhibitor, partial curve, poor fit] |
| C/C(=N\NC(=O)COc1ccc(C(C)(C)C)cc1)c1ccccc1 | inactive |
| CC(C)(C)n1nnnc1CN(Cc1ccc(F)cc1)Cc1ccco1 | inconclusive [inhibitor, single point] |

| SMILES | Potency |
| --- | --- |
| Cc1ccc(S(=O)(=O)c2c(N)n(Cc3ccco3)c3nc4ccccc4nc23)cc1C | active: 10.4 µM |
| CC(C)c1ccc(NC(=O)[C@H](NC(=O)[C@@H]2Cc3ccccc3CN2)c2ccccc2)cc1 | inconclusive [inhibitor, partial curve] |
| Cc1ccc(S(=O)(=O)N2CCOC2CNC(=O)C(=O)NCc2ccccn2)cc1 (stereo unspecified) | inactive |
| CC(C)=CCN1CCN(Cc2ccc(C#CC(C)(C)O)s2)CC1CCO (stereo unspecified) | inactive |
| COCCN1C2=C(C(=O)CC(C)(C)C2)C(c2ccc(O)c(OC)c2)C2=C1CC(C)(C)CC2=O | inactive |
| CCCCC(=O)OCC(=O)[C@]1(O)Cc2c(O)c3c(c(O)c2[C@H](OC2CC(NC(=O)C(F)(F)F)C(O)C(C)O2)C1)C(=O)c1c(OC)cccc1C3=O (stereo partly specified) | active: 3.38 µM |
| CC(C)c1ccc(N(CC(=O)NCCCN2CCOCC2)S(=O)(=O)c2ccccc2)cc1 | inconclusive [inhibitor, single point] |
| O=C(Cn1cc[n+](CC(=O)c2ccc(Cl)cc2Cl)c1)c1ccc(Cl)cc1Cl | inconclusive [inhibitor, single point] |
| Cc1nn(C)c(=O)n1-c1ccc(Oc2ccccc2)cc1 | inactive |
| c1csc(-c2nc(NCCCN3CCOCC3)c3ccccc3n2)c1 | inconclusive [inhibitor, single point] |
| COc1cc(/C=C/C(=O)OCC(=O)N2CCN(S(=O)(=O)c3ccc(C)cc3C)CC2)ccc1O | inconclusive [inhibitor, single point] |
| CCOC(=O)N1CC=C2C(C#N)=C(N)C(C#N)(C#N)[C@H](c3cccs3)C2C1 (stereo partly specified) | inconclusive [inhibitor, partial curve] |
| c1ccc(CNc2nc(NCc3ccco3)nc(N3CCOCC3)n2)cc1 | inconclusive [inhibitor, single point] |
| CCOCc1nnc(NC(=O)c2cc(OC)c(OC)cc2[N+](=O)[O-])s1 | inactive |
| COc1ccc(CNC(=O)c2ccc(CS(=O)(=O)c3ccc(Br)cc3)o2)cc1 | inactive |
| Cc1ccsc1-c1nc(CSCC(=O)NCCN2CCCC2)c(C)o1 | inconclusive [inhibitor, partial curve, poor fit] |
| CC(C)N1C(=O)/C(=C/c2nc3ccccc3c(=O)n2-c2ccccc2)c2ccccc21 | inconclusive [inhibitor, full curve] |
| Cn1c(N)c(C(=O)COC(=O)CC(NC(=O)c2ccccc2Cl)c2ccccc2)c(=O)n(C)c1=O (stereo unspecified) | active: 1.31 µM |
| CC1(C)Cc2c(cnn2-c2ccc(F)cc2)C(NC(=O)C(C)(C)O)C1 (stereo unspecified) | inconclusive [inhibitor, full curve] |
| CCOC(=O)C1CCCN(c2nc3c(C)cccn3c(=O)c2/C=C(\C#N)C(=O)NCc2ccco2)C1 (stereo unspecified) | inconclusive [inhibitor, single point] |
| COCCn1c(SCc2ccc(C(=O)OC)o2)nc2cc(Cl)ccc2c1=O | inconclusive [inhibitor, single point] |
| CN1CCN2c3ccccc3Cc3ccccc3C2C1 (stereo unspecified) | inconclusive [inhibitor, single point] |

| SMILES | Potency |
| --- | --- |
| O=C(COC(=O)/C=C/c1ccc(OC(F)F)cc1)Nc1cccc(S(=O)(=O)N2CCCC2)c1 | inconclusive [inhibitor, single point] |
| CCOc1ccc(NC(=O)CNC(=O)c2nn(-c3ccc(OC)cc3)c(=O)c3ccccc23)cc1 | active: 9.28 µM |
| CCOC(=O)C1(CCCc2ccccc2)CCN(C(=O)[C@@H]2C[C@@H](C)NC(=S)N2)CC1 | inconclusive [inhibitor, partial curve, poor fit] |
| COCCn1c(SCC(=O)N2CCC(C)CC2)nc2c(c1=O)SCC2 | inactive |
| Cc1cc(=O)oc2cc(OCC(=O)Nc3ccc(CN4CCOCC4)cc3)ccc12 | inconclusive [inhibitor, single point] |
| Cc1ccc(S(=O)(=O)N2CCOCC2)cc1NC(=O)CNCC1CCCCC1 | inactive |
| CCC(=O)c1ccc(OCC(O)CN2CCN(C(c3ccccc3)c3ccccc3)CC2)cc1 (stereo unspecified) | inconclusive [inhibitor, single point] |
| COc1ccccc1OCCn1cc(C(=O)C(C)C)c2ccccc21 | inconclusive [inhibitor, single point] |
| CCOc1ccc(/C(O)=C2/C(=O)C(=O)N(c3ccccn3)C2c2ccc(F)cc2)c(C)c1 (stereo unspecified) | inactive |
| Nc1nc(CN2CCN(c3ccccc3F)CC2)nc(Nc2ccc3c(c2)OCCO3)n1 | inconclusive [inhibitor, partial curve, poor fit] |
| O=C(CCc1ccccc1)NNC(=O)c1ccccc1C(=O)O | inactive |
| COc1ccc(S(=O)(=O)N2CC=C(C(=O)Nc3ccc(NC(C)=O)cc3)CC2)cc1 | inconclusive [inhibitor, full curve] |
| CC1CCCCC12NC(=S)N(c1ccccc1)N2 (stereo unspecified) | inactive |
| Cc1cc([N+](=O)[O-])nn1Cc1ccc(C(=O)N/N=C/c2ccc(O)cc2O)cc1 | inconclusive [inhibitor, single point] |
| Cc1ccc(C)c(CN2C(=O)c3ccccc3S(=O)c3ccc(C(=O)NCCCN4CCCC4)cc32)c1 (stereo unspecified) | inconclusive [inhibitor, full curve] |
| COc1ccc2[nH]cc(C(=O)CN3CCCC(C)C3)c2c1 (stereo unspecified) | inactive |
| O=c1c2ccccc2[nH]c2ccccc12 | active: 1.65 µM |
| CC(C)C1Cc2c(sc(NC(=S)NC(=O)c3ccccc3)c2C#N)CO1 (stereo unspecified) | inactive |
| C=C(C)CSc1nnc([C@@H](N)Cc2ccccc2)o1 | inactive |
| COC1CCN(Cc2c(C(=O)N3CCc4ccccc4C3)nc3ccc(Cl)cn23)CC1 | inconclusive [inhibitor, partial curve, poor fit] |
| Cc1cccc(NC(=O)CSc2nnc([C@@H](N)Cc3c[nH]c4ccccc34)o2)c1C | inconclusive [inhibitor, partial curve, poor fit] |
| CCc1nc(Nc2ccc(OC)c(OC)c2)c2nnn(Cc3ccccc3Cl)c2n1 | inconclusive [inhibitor, single point] |
